# Laboratory results reported in article PMC12559291.
# By UniProt entry, the sequences of proteins in these tests, tags left out. Where a name states a change or a piece, a line headed by the entry shows the natural chain unless it says otherwise.
# UniProt P17931: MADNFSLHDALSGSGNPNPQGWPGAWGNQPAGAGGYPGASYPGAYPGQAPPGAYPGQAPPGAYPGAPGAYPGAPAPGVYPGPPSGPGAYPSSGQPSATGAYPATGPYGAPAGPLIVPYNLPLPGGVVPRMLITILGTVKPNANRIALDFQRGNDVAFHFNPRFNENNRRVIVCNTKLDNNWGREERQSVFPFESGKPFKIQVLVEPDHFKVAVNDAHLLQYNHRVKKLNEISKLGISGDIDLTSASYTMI
# UniProt P08648: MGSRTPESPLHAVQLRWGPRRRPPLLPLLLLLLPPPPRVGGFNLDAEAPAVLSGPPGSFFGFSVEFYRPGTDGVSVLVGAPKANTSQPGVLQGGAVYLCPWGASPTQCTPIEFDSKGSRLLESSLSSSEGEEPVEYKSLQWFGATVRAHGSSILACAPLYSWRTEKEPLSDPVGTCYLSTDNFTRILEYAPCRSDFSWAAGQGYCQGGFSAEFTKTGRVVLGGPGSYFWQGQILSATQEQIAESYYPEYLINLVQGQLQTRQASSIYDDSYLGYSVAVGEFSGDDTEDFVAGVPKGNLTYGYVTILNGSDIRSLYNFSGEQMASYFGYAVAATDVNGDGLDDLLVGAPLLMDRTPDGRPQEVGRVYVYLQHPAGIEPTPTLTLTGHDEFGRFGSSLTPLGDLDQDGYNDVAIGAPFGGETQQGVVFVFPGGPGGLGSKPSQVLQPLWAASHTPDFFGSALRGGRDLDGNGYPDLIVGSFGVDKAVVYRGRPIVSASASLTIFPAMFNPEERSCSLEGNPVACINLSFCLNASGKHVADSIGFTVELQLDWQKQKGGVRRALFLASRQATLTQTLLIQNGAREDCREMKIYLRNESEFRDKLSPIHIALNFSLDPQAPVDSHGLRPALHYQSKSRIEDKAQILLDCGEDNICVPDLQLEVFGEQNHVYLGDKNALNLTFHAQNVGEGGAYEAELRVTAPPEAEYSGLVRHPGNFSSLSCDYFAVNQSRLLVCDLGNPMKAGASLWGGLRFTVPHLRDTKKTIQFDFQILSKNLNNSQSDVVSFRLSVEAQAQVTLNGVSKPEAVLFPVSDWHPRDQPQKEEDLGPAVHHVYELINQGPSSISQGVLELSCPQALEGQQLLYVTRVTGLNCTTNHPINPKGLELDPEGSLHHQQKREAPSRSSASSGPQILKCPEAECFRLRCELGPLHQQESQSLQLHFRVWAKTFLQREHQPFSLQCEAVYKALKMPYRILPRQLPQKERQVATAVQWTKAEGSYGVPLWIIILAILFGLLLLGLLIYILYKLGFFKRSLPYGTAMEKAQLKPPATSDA
# UniProt P05556: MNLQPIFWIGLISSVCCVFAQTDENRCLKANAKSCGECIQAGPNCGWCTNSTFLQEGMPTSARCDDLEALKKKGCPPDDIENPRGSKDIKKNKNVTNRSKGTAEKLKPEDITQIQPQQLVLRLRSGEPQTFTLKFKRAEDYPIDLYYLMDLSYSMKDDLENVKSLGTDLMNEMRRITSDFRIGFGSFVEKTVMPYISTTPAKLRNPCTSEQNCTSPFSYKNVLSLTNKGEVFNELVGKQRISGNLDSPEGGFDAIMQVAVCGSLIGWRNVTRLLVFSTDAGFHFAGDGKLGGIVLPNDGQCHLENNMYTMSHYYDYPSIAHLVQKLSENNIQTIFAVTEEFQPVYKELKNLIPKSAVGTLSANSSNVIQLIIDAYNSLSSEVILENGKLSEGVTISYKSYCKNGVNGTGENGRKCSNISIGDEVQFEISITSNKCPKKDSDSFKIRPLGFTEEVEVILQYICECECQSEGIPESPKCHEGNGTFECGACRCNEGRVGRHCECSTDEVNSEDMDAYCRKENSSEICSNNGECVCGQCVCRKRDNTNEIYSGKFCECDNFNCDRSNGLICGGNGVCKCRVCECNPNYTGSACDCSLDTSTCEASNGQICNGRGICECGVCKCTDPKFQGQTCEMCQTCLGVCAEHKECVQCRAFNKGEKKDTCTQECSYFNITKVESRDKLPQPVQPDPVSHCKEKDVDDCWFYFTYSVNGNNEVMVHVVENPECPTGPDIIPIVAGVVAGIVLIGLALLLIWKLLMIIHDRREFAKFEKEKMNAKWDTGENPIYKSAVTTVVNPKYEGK
# UniProt Q00610: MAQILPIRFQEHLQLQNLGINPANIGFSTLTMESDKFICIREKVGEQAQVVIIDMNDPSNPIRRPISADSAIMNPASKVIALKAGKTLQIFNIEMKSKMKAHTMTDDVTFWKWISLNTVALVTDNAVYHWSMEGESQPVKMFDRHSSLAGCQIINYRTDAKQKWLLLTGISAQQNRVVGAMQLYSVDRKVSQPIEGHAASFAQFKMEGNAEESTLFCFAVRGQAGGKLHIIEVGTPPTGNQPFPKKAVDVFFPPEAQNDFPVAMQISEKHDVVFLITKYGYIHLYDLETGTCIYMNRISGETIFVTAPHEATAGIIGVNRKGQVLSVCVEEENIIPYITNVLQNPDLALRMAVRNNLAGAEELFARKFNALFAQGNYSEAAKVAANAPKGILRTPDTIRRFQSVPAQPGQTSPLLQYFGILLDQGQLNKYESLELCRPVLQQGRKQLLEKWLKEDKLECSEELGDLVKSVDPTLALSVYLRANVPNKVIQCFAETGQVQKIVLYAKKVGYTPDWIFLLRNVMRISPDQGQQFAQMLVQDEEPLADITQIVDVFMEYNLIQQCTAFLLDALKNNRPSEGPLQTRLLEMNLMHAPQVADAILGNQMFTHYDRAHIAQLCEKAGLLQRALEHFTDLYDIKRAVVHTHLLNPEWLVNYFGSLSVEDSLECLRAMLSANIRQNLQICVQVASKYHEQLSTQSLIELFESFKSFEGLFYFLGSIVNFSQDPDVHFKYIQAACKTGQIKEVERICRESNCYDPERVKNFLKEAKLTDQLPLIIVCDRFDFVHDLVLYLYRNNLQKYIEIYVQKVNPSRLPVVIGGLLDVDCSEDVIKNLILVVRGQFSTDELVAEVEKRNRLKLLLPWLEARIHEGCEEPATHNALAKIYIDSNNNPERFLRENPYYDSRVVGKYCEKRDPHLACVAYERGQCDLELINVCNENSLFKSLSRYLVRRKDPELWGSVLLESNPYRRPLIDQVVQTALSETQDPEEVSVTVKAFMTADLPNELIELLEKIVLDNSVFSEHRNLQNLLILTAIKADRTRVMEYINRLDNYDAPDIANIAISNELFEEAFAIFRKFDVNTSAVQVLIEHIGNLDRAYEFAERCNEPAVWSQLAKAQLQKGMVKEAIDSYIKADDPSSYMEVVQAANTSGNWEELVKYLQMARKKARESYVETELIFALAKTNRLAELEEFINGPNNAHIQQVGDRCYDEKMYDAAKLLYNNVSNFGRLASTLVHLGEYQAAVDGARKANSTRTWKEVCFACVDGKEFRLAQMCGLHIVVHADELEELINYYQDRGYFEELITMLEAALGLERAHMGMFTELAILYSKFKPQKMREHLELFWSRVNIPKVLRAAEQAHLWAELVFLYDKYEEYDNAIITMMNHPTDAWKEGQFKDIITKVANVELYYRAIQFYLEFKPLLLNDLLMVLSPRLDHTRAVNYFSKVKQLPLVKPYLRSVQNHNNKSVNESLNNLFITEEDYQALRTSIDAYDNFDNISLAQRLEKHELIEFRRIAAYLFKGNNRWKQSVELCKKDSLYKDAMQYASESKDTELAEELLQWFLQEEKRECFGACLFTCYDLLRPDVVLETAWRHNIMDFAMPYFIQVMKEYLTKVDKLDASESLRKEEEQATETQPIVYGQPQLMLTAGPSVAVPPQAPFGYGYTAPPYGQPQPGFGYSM
# Results are given in words; binding and its absence hold for the method and conditions named. For some assays here: In cells and extracts the contact can be indirect. Some results given as binding are weak or reduced against the parent protein; the word gives no strength.
# Assays:
# [1] = molecular target: Gal3∆Nter-6xHis (Gal3 mutant whose N-terminal oligomerization domain was deleted) (human) (UniProt P17931); assay: negative stain EM; Gal3 or Gal3∆Nter (4 μM, 2 h at 21 °C) on inactive rat α5β1 integrin in nanodiscs held on cobalt beads, washed, eluted with 50 μM I3; the eluted particles counted as monomers or ring-shaped oligomers; both purified
# [2] = molecular target: α5β1 integrin, endogenous in RPE-1 cells (human (endogenous in RPE-1)) (UniProt P08648+P05556); assay: co-IP; RPE-1 cells; 9EG7 (10 μg/mL) bound 30 min at 4 °C (active ligand-bound conformer); lysis; protein G-sepharose overnight at 4 °C; immunoblot for CHC
# [3] = molecular target: Human recombinant Gal3-6xHis (human) (UniProt P17931); assay: pull-down; RPE-1 cells with or without sialidase (neuraminidase); SETA-555 labelled His-tagged Gal3 (5 μg/mL) and mAb13 (5 μg/mL) bound in turn at 4 °C; lysate on cobalt-coated beads overnight at 4 °C; mAb13 (bent-closed conformer) blotted; only the target purified
# Gal3-CFP (human) [4] = molecular target: Gal3-CFP (human) (UniProt P17931); assay: co-IP; cells transiently expressing Gal3-CFP; mAb13 (10 µg/mL) bound to the surface at 4 °C; lysis in TNE 1% NP40; GFP-Trap beads overnight at 4 °C; co-precipitated mAb13 (inactive bent-closed conformer) blotted
# Gal3-CFP (human) [5] = molecular target: Gal3-CFP (human) (UniProt P17931); assay: co-IP; as a5 but with surface-bound 9EG7 (active ligand-bound conformer)
substance,measurement,setting,value
Gal3∆Nter-6xHis (Gal3 mutant whose N-terminal oligomerization domain was deleted) (from UniProt P17931 115-250) (domain or fragment),binding,[1],no binding (tested: 4 µM)
clathrin heavy chain (CHC) (from UniProt Q00610 1-1675),binding,[2],binds
"α5β1 integrin, endogenous in RPE-1 cells (from UniProt P08648 42-1049; P05556 21-798) (complex)",binding,[3],binds
same,binding,Gal3-CFP (human) [4],binds
same,binding,Gal3-CFP (human) [5],binds weakly
